Out of some 150,000 compounds screened, about 540 (0.36%) showed an effect of 50% or more. This is one part of the list.
Tested on: Plasmodium falciparum
Assay: Primary screen in NF54 nanoGlo assay, in single point, at 2uM, 72h; a lower Z score goes with more inhibition
Type: functional, Erythrocyte
Details: timepoint 72 hour

Structure (SMILES) | % Inhibition | Z score
CC(C)CN(Cc1cc(NC(=O)c2cccs2)ccc1N(C)C)C(=O)C(C)(C)C | 11% | -2.14
O=C(Cn1nc(N2CCCCCC2)c2ccccc2c1=O)Nc1ccc2c(c1)OCO2 | -10% | 1.5
CCn1cc(S(=O)(=O)N(C)[C@H](C)c2cccnc2)cn1 | -5% | 0.76
O=C(NC[C@@]12CCC[C@@H]1OCC2)c1ccc2n[nH]c(=O)n2c1 | -7% | 0.91
Cc1ccc(CNC(=O)[C@@H]2CC=CCC2)cn1 | -3% | 0.5
C[C@@H](CN(C)CCO)NCCc1cccc(F)c1 | -13% | 1.19
CCN1CCN(c2ncc(-c3cc(=O)[nH]c(N4CCN(c5ccc(Cl)cc5)CC4)n3)c(C)n2)CC1 | -11% | 1.68
FC1(F)CC(COc2nccs2)C1 | 2% | -0.37
O=c1c(CNc2ccccc2)cc2cccc3c2n1CCC3 | 5% | -0.65
Cn1cc(-c2nc3cc(F)c(F)cc3c(=O)[nH]2)ccc1=O | -12% | 2.34
CC(C)c1ccc(NC(=O)N2CCc3nc(N4CCN(C5CCCCC5)CC4)nc(N(C)C)c3C2)cc1 | -2% | 0.31
COC1C2CC3CN(C(=O)NCc4cnccc4C)C1C3C2 (stereo not drawn) | -2% | 0.27
CCC1CN(C(=O)c2cnn(C3CCCCC3)c2)CC1N(C)C (stereo not drawn) | -14% | 1.64
CNC(=O)C1CCCC1NC(=O)N[C@H](C)c1ccc(Cl)cc1Cl (stereo partly drawn) | 0% | -0.02
Cc1nc(Nc2ccccc2)[nH]c(=O)c1CCc1ccccc1 | 14% | -1.7
CCOC(=O)[C@H]1CCCN(C(=O)c2cnc(-c3cccc(C)c3)nc2N(C)Cc2ccccc2)C1 | -1% | 0.13
Cc1ccnc(NC(=O)c2ccc(Oc3ccccc3)cc2)c1 | -5% | 0.69
CCCOc1ccccc1CCNC(=O)N1CC[C@H](NC(C)=O)C1 | -2% | 0.35
CC(C)CC1OCCCC1NC(=O)c1cccn(C)c1=O (stereo not drawn) | -7% | 0.6
Cc1nn(C)c(C)c1NC(=O)CNc1ccccc1N1CCCCC1 | 32% | -3.58
CN(C(=O)Cn1ccnn1)c1ccccc1Oc1ccccc1 | 7% | -1.31

Structure (SMILES) | % Inhibition | Z score
CC(=O)c1ccc(S(=O)(=O)N2CCN(CC(=O)Nc3c(C)n(C)n(-c4ccccc4)c3=O)CC2)cc1 | -1% | 0.08
Cc1ccc(S(=O)(=O)N2CCOCCN(S(=O)(=O)c3ccc(C)cc3)CCOCC2)cc1 | -14% | 1.91
CCC(=O)N(Cc1c(-c2ccccc2)noc1N1CCCC1)CC(C)C | 0% | 0.01
NC(=NCc1cccc(O)c1)NCCc1ccccn1 | -6% | 0.86
CCCn1cc(C(=O)N2C[C@H](c3ccc(C)cc3)[C@@H](N(C)C)C2)c(C)n1 | 13% | -1.61
C[C@@H](C(=O)NC1(C#N)CCCCC1)N1CCC(c2ccsc2)CC1 | 2% | -0.49
C[C@@H](NC(=O)c1cc(C(=O)OC(C)(C)C)[nH]n1)c1cc(Cl)ccc1OC(F)F | -14% | 2.62
C[C@@H](CCc1ccccc1)NC(=O)c1cc2n(n1)CCCO2 | -19% | 3.02
c1cc2c(cc1CNc1nnc([C@@H]3CCCO3)o1)CCO2 | -9% | 1.71
Cc1ccc(NC(=O)c2cccc(OC(=S)NCc3ccccc3)c2)cc1 | -6% | 1
O=C(c1csc(-c2ncccc2F)n1)N1CCOC[C@@H]1CC1CC1 | -15% | 1.7
c1cc(-c2nc3c(c(N4CCC[C@H](c5ncc[nH]5)C4)n2)CCC3)ccn1 | 4% | -0.36
Oc1ccc(Cl)cc1[C@@H](C#Cc1ccccc1)N1CCOCC1 | -2% | 0.27
Cc1nccn1CC(=O)N[C@@H](C)C1=CCCCC1 | 3% | -0.38
Cc1cccc(CN(CCN2CCCCC2)C[C@H]2CCCN(C3CCCC3)C2)n1 | 9% | -1.89
Cc1cc(C(=O)N2CCC[C@H](CN3CCOCC3)C2)nc(N)n1 | -7% | 0.82
CN(C)c1noc(CN2CCCC2=O)n1 | 5% | -0.84
CC(=O)[C@H](C)n1nc(C2CC2)ccc1=O | -17% | 2.21
Cc1ncc2c(c1-c1noc(CCn3c(C)nc4ccccc43)n1)CCNC2 | -5% | 0.63
CC(C)CCC(CCN1CCCC1)C1CCOC(C)(C)C1 (stereo not drawn) | 2% | -0.42
O=C(Nc1ccc(Cl)cc1)[C@@H]1CCCN1 | -14% | 1.88

Structure (SMILES) | % Inhibition | Z score
COc1cc(CC(=O)NC2CC(C)(OC)C2(C)C)cc(OC)c1O (stereo not drawn) | -12% | 1.34
c1ccc(-c2nccc(-c3ccc(-n4cncn4)cc3)n2)nc1 | 49% | -2.29
CC(C)(C)N1CC[C@H](NC(=O)NCc2ncn(Cc3cccc(F)c3)n2)C1 | 1% | -0.2
CCN(C[C@H]1COc2ccccc2O1)C(=O)c1cnc(C)cn1 | -17% | 1.41
COCc1noc(CCNc2nc(C)nc3oc(C)nc23)n1 | 1% | -0.25
COc1ccc(-c2noc(-c3cccn3CC(=O)Nc3ccc4c(c3)CCC4)n2)cc1F | -4% | 0.51
Cc1nn(-c2nc3ccccc3[nH]2)c(O)c1Cc1ccccc1 | 63% | -1.65
c1cc(-c2nc(CN3CCC4(C3)OCCO4)no2)cs1 | -14% | 2.62
COCc1nc2n(n1)CC(NC1CCC(C)C(C)C1)CC2 (stereo not drawn) | 1% | -0.12
Cc1cccc2c1NC(=O)[C@]21[C@@H](C(=O)c2ccc(OC(C)C)cc2)[C@]2(C(=O)Nc3ccccc32)[C@@H]2CCCN21 | -25% | 2.22
Cc1ccc(Cc2ccccc2C(=O)N2C[C@@H](C)[C@@](C)(O)C2)cc1 | -6% | 1.11
Cc1cc(C)n(-c2c(-c3ccccc3)c(=O)n3c4c(cccc24)CCC3)n1 | -13% | 1.67
Clc1cc(CNCCc2ccccc2)ccc1OCc1ccccc1 | 39% | -4.47
CCCOc1cc(S(N)(=O)=O)ccc1Br | 3% | -0.33
Cc1cccc(Cn2c(C(=O)NCc3ccccc3)cc3cc(NC(=O)c4ccc(C)c(C)c4)ccc32)c1 | 13% | -1.79
Cn1cccc1[C@@H]1CCCN1Cc1cccc2cccnc12 | -15% | 1.34
CN(Cc1cccnc1)C[C@H]1CCCN(c2nccc3ccsc23)C1 | -2% | 0.32
CC(C)CC[C@H]1CCCCN1c1nnc(-c2ccon2)s1 | -6% | 1.23
O=C(Cn1cnc2ccccc2c1=O)NCCNC1=NS(=O)(=O)c2ccccc21 | -10% | 1.22
CCOC(=O)C1CCN([C@@H](C(=O)NC2CCCCC2)c2ccc(C)cc2)CC1 | 2% | -0.36
CCOc1ccc2c(c1)C(c1ccc(Cl)cc1)=NNC(c1ccccc1)=N2 | -10% | 1.52

Structure (SMILES) | % Inhibition | Z score
CN(C)S(=O)(=O)NCCNc1ncc(Cl)cc1Cl | 2% | -0.15
CNC(=O)Cn1cc(N[C@H]2CCN(c3ccc(Cl)cc3Cl)C2=O)cn1 | -14% | 1.45
O=S(=O)(C1CCC(C(F)(F)F)CC1)N1CC[C@H](c2nc(C3CC3)no2)C1 (stereo partly drawn) | 16% | -1.99
O=C(Nc1cccc(S(=O)(=O)N2CCOCC2)c1)N1CCCCCCC1 | -15% | 2.55
O=C(Cn1c(C2CCCCC2)nc2ccccc21)Nc1nncn1C1CC1 | -15% | 1.53
CCc1nnc(-c2ccc(=O)n(CC(=O)Nc3ccc(C)c(C)c3)c2)o1 | 2% | -0.33
COc1cc(-c2ccno2)ccc1S(=O)(=O)Nc1cccc2c1CCCC2 | 1% | -0.12
COc1cc(OC)cc(-c2c3c(O)nn(C(C)C)c3nc3[nH]c(=O)n(C)c23)c1 | -3% | 0.3
Cn1c(Cn2c(=O)n(C3=CCCCC3)c3ccccc32)nnc1C1CC1 | -17% | 3.22
CCN(Cc1ccncc1)[C@H]1CCCN(C(=O)Cn2cnnn2)C1 | 4% | -0.74
CC(=O)c1ccc(NCCC(=O)c2ccc3c(c2)OCO3)cc1 | -14% | 1.52
CN(CCO)Cc1nnc(C2CCN(c3nc(C(N)=O)cs3)CC2)n1C | -1% | 0.06
N#Cc1ncn(Cc2csc(C3CC3)n2)c1C#N | -11% | 0.96
CCN1C[C@@H](C(=O)Nc2cc(C)ns2)CCC1=O | 6% | -0.89
COc1ccc([C@H]2CC(=O)NCc3nc(N(C)C)sc32)cc1CN(C)C | -18% | 1.65
O=C(COc1ccc(OCc2ccccc2)cc1)N1CCCC1 | 0% | 0.02
CC(C)(C(=O)O)c1ccc(S(=O)(=O)N2Cc3ccccc3C2)cc1 | -6% | 1.22
Cc1sc(NC(=O)C(C)C)c(C(=O)N2CCNC(=O)CC2)c1C | 13% | -1.67
Cc1ncc(CNCc2ccccc2CN2C(=O)NC3(CCCCC3)C2=O)o1 | -10% | 1.04
CCOc1cc(CNC(=O)[C@H](C)n2c3ccccc3c3cnn(C)c(=O)c32)ccc1OC | -9% | 0.92
Cc1ccc(C[C@H](C)NC(=O)CCN2C(=O)CCC2=O)s1 | 2% | -0.32
